The supplement of paper PMC3334620
The full ranking holds about 33,000 sequences; the median of “E-score (-0.5 to 0.5)” is about -0.017, and the highest 2% start at about 0.3. The list shows a part of the results.

These sequences were tested against T1, Sut1 (UniProt P53032) (assay: PBM E-score (8-mer binding enrichment) (E-score (-0.5 to 0.5)); higher = stronger / more preferred TF binding; most listed sequences are background and not binding sites). Settings: protein concentration: 200 nM; construct: GST-full length.
T1 sequence: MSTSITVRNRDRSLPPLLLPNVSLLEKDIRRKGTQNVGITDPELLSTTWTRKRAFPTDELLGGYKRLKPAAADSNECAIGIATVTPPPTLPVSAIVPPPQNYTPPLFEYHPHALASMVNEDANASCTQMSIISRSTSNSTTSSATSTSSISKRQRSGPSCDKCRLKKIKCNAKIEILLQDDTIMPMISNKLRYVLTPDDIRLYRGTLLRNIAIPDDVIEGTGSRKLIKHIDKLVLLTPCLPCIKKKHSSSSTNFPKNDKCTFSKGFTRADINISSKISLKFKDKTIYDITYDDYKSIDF
Outline: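 Detection of bound protein used fluorescent anti-GST, with scans normalised by masliner. The proteins were GST-tagged yeast transcription factors applied at about 100-200 nM to universal all-10-mer Agilent arrays made double-stranded by primer extension. Each ungapped eight-base word, pooled with its reverse complement, was scored with an E-score from the Universal PBM Analysis Suite.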

Sequence | PBM E-score
AACAGCAC | 0.156
AGGAATGC | -0.0946
AATCCGAG | 0.0276
CTAAGCAA | -0.0825
AAGCTCTG | -0.197
GTTTAGTA | 0.208
ACGAATTG | 0.0104
GAGCTTCA | 0.0926
AGTTTCTG | 0.0794
GTTTTGCA | 0.0328
AGCTCTCA | 0.00744
CGAACGAA | 0.126
CCCAGTGC | -0.148
GCGGTTAC | 0.113
CAAGTTTA | 0.0197
GATCGAAC | -0.0314
GAGCTCCA | -0.0878
ACAAGTGT | -0.0511
AGCATCAC | -0.193
ATAATTAA | 0.314
ACATGGAG | -0.22
GATCGGTA | 0.188
AAGACATT | -0.118
GCACCGCC | -0.248
AGCAGGGC | -0.32

Sequence | PBM E-score
ACGATCTG | -0.133
CTGGTATC | -0.215
CGCCCTGA | -0.105
GCATGAAA | 0.047
TGGGACAA | -0.165
CGCCGATC | 0.137
ATAAACAC | 0.0929
GCCAAAAA | 0.175
ACGAACAG | -0.146
AAGAACCG | 0.222
CATCTCTA | 0.0078
ACATTCCT | -0.0661
CCAGCACG | -0.277
AGCCGAAC | -0.0293
CCCCCAAG | -0.13
GCGGTTCA | -0.182
GCAACCTA | -0.0902
GACCGCAA | -0.0776
CTCAGGAC | -0.127
ATGCACGA | -0.0413
CACAAACC | -0.0926
CCTCCAGG | -0.325
ACTTCTAT | 0.094
AACTACAT | 0.141
TAACCAAA | 0.248

Sequence | PBM E-score
TGGGCCCA | -0.0911
CCGACATA | 0.0387
ACTAGGTA | 0.111
AAAAGGCT | -0.0471
TGACTAAA | 0.128
CTTGATGA | 0.104
CTAAATAC | 0.144
CGTCGAAG | -0.0997
ACCTGTCG | -0.0238
AGTGGTAA | 0.0603
CGAAGATC | 0.0352
CGTCCATC | 0.0407
ACCGTCGA | -0.137
ATTGAGAA | 0.264
GGCGTAAA | 0.0487
GAACGGGA | 0.0237
ACCCAAGC | -0.226
CGAAGAAG | 0.0783
AATCCGTC | 0.0795
AGAAATCC | 0.105
AGGGATTA | -0.147
ACTACCAC | -0.0627
CCTGAGCA | -0.0293
CTAGTGCC | -0.184
GACAAGGA | 0.052

Sequence | PBM E-score
AAACTCTT | -0.0658
AGGATACA | 0.0244
GTGGCGGA | 0.124
CCTTGGAA | 0.0966
ACAAGGCA | -0.0581
CAGCCACG | -0.06
AGTCTCAA | -0.149
GAGTGGCA | -0.173
ACTACCTG | -0.0394
GTACACAC | 0.0244
AGAGAATG | -0.00446
AATAAAGT | 0.22
GCTATGCC | -0.171
CCCTGCTA | -0.278
TCTATCAA | 0.0982
CGTGTGGC | -0.162
ACTACCAG | -0.0981
AGTCATGG | 0.00723
CTCACACC | -0.164
ATGTCCTC | -0.146
CATTGGTA | 0.114
GCTCTTGA | -0.0645
CGCCTATC | -0.0597
ATCGCCAA | -0.0192
GGGTCGCA | -0.0918

Sequence | PBM E-score
ACCATGCG | -0.0896
CGCATCCG | 0.0404
ATCCATTA | 0.076
AGATTTGC | 0.072
ATACATCG | 0.128
AACGCATG | -0.114
ACGACTAG | -0.0608
CGCCCGCC | -0.195
CACGACGC | -0.224
CATGGCGC | -0.0707
ACGGGGCG | 0.0468
ATACAATC | 0.236
AAACTCCA | 0.297
AACAAGTT | 0.132
AGTGCAGA | 0.00361
AAAACCGC | 0.113
AGTACAGC | -0.0707
AGGTCGTA | -0.0445
ACTCCTCA | 0.0205
AACGAGCT | -0.0799
AAACCTTC | -0.0412
CCTCAGCG | -0.118
GATTGTTA | 0.167
CCAGTAGC | -0.0812
CCCGACTC | -0.0963

Sequence | PBM E-score
ATGAACTG | 0.0691
AGTGGAAG | -0.126
CTGCGCAA | 0.0232
CGATCCGA | 0.101
CACCCTCC | -0.0973
CAAAACAC | 0.14
TAACTACA | 0.179
ACGTAGAG | -0.179
CTGTATGA | 0.147
ACCATTCT | 0.0248
GACAGGAA | 0.0604
CACCCTGA | -0.296
ACTCCCAC | -0.121
GATGGCCA | -0.0631
TGATACAA | 0.0578
GTGCGTTA | 0.0585
CGACCTGC | -0.205
GTCAACGA | -0.0964
CGATGTGC | -0.169
CAGTGTGA | -0.0672
ATCAAGAA | 0.149
AGTATCCA | -0.0247
ACCCCTAT | -0.171
AAGATGAA | -0.0212
ATGCCTAG | -0.155

Sequence | PBM E-score
CAACCTCC | -0.00121
TGATTACA | 0.148
AGCTACTG | -0.0717
TAACGCCA | -0.163
ATTTATGG | 0.0698
GGAACAGA | 0.0314
CTGCCTAA | -0.177
CTCAGGTC | -0.0238
CATGACCC | -0.177
CACTTGCC | -0.0834
GCCACCAC | -0.276
CTCAACCC | -0.0612
CGTTTTCC | 0.0573
CATGTAGC | -0.145
TCTTTGCA | 0.0819
AAGCGTGC | -0.101
GCATACGA | -0.154
ATGACCCG | -0.137
CCGCAGAA | 0.0503
CTCTAACC | -0.142
CAGCTCCG | 0.461
CTTCTAAC | 0.0204
